The record followed here is article PMC4336329 (PLoS ONE, 2015).

Molecules are shown by their SMILES. Out of some 310,000 compounds screened, about 2,200 (0.71%) showed an effect of 50% or more. Effects have a minus sign here. The list shows a part of the results.

This experiment deals with human ether-à-go-go-related gene (hERG) potassium channel (human, UniProt Q12809). In words: primary screen, population patch clamp on CHO cells stably expressing hERG.
human ether-à-go-go-related gene (hERG) potassium channel, sequence (Q12809 whole entry, looked up): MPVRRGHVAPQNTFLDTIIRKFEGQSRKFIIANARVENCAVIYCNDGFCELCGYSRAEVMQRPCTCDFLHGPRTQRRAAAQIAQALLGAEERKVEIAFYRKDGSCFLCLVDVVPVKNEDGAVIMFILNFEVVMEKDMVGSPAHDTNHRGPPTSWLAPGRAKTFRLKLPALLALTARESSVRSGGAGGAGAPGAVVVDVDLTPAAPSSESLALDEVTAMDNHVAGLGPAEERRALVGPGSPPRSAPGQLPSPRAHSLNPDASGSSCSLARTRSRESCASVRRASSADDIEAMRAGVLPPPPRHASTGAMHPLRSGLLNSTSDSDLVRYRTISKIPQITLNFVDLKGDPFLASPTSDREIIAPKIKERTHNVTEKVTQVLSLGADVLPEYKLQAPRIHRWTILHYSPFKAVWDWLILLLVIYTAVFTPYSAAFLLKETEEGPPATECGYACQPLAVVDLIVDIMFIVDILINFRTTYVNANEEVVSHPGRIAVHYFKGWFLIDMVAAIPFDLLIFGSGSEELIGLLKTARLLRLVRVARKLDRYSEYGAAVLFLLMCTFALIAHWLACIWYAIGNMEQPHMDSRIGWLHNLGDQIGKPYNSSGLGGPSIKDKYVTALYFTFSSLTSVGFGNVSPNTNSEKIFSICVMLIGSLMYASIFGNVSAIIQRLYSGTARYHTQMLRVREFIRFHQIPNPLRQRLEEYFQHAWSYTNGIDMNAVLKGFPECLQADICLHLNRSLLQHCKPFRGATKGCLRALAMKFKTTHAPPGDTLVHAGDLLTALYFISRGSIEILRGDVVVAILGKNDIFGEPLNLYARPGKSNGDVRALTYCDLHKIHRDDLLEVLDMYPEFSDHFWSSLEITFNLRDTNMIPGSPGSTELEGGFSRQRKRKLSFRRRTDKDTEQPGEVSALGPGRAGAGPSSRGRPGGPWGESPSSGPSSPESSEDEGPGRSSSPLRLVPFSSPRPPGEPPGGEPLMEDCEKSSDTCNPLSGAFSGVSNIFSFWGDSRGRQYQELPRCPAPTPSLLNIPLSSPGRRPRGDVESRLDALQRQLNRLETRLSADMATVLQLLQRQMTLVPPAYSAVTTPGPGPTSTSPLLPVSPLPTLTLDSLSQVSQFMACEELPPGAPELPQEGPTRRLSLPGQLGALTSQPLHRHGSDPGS
With `O=C(Cc1ccccc1)NCC(=O)OCC(=O)c1cccs1`, the “hERG current change (%, negative = inhibition) at 1uM” value is -1.37%.

As to `Br.COc1c2c(cc3c1OCO3)CCN(C)C2`, the “hERG current change (%, negative = inhibition) at 1uM” value stood at 7.16%.

For `CC(O)/C=C/C1OC(=O)CC1Nc1ccc(C=O)cc1` (centres unmarked), the “hERG current change (%, negative = inhibition) at 1uM” value turned out to be 4.57%.

In the case of `OC1C2CN3CCN(C2)CC1(Cc1ccccc1)C3` (centres unmarked), the “hERG current change (%, negative = inhibition) at 1uM” value worked out at 4.69%.

Regarding `CN1CCN(NS(=O)(=O)c2ccc(Cl)s2)CC1`, the “hERG current change (%, negative = inhibition) at 1uM” value is 14.7%.

In the case of `O=C(NCc1ccco1)C(c1ccccc1)N(C(=O)Cc1cccs1)c1ccccc1F` (centres unmarked), the “hERG current change (%, negative = inhibition) at 1uM” value was found to be 7.85%.

For `O=C(COC(=O)C1CC2CCCC(C1)C2=O)NNC(=O)c1ccccc1F` (centres unmarked), the “hERG current change (%, negative = inhibition) at 1uM” value is 14.8%.

In the case of `CC(Cc1cccnc1)NC(=O)c1cc(COc2ccc(F)cc2F)on1` (centres unmarked), the “hERG current change (%, negative = inhibition) at 1uM” value came out at 7.52%.

`O=C(Cn1cc([N+](=O)[O-])cn1)NCc1cc2ccccc2[nH]1`: the “hERG current change (%, negative = inhibition) at 1uM” value is -2.9%.

For `Cl.O=C(CC(Nc1ccc(F)cc1)c1ccccc1)c1ccccc1` (centres unmarked), the “hERG current change (%, negative = inhibition) at 1uM” value was 5.51%.

As to `O=C(Cn1cc([N+](=O)[O-])cn1)NCC1CCCO1` (centres unmarked), the “hERG current change (%, negative = inhibition) at 1uM” value stood at 15.1%.

Take `CC(C)c1ccc(C2(C)NC(=O)N(CC(=O)NCC3COc4ccccc4O3)C2=O)cc1` (centres unmarked): the “hERG current change (%, negative = inhibition) at 1uM” value was -2.67%.

For the compound `Cc1cccc(N(C(=O)CNC(=O)c2ccco2)C(C(=O)NC2CCCC2)c2cccnc2)c1C` (centres unmarked), the “hERG current change (%, negative = inhibition) at 1uM” value was determined as 14.2%.

With `O=C(O)c1cn(CCOc2ccccc2Cl)c2ccccc12`, the “hERG current change (%, negative = inhibition) at 1uM” value turned out to be 17.7%.

As to `CCC(C)N(C(=O)CSc1ncnc2sccc12)C1CCS(=O)(=O)C1` (centres unmarked), the “hERG current change (%, negative = inhibition) at 1uM” value worked out at 6.08%.

For `Cc1cccc(N2CCN(C(=O)c3ccc(-n4cncn4)c([N+](=O)[O-])c3)CC2)c1C`, the “hERG current change (%, negative = inhibition) at 1uM” value was -7.83%.

With `O=c1oc2ccccc2n1Cc1cccc(F)c1`, the “hERG current change (%, negative = inhibition) at 1uM” value is on record as 7.2%.

For the compound `Cc1cc(C)nc(SCCC(=O)Nc2ccccc2Cl)n1`, the “hERG current change (%, negative = inhibition) at 1uM” value is recorded as 15.8%.

For the compound `NC(=O)CC(NC(=O)Cc1ccc(Br)cc1)c1ccc(NCc2ccc(F)cc2)c([N+](=O)[O-])c1` (centres unmarked), the “hERG current change (%, negative = inhibition) at 1uM” value was found to be 7.17%.

In the case of `CCn1c(SC)nnc1-c1nnc(SC)n1CC`, the “hERG current change (%, negative = inhibition) at 1uM” value was determined as 3.59%.

As to `COc1cc(C2(c3ccc(O)c(OC)c3)C(=O)N(C)c3ccc(Br)cc32)ccc1O`, the “hERG current change (%, negative = inhibition) at 1uM” value is recorded as -12.7%.

Regarding `Oc1ccc(Cl)cc1-c1cc(-c2ccccc2Cl)[nH]n1`, the “hERG current change (%, negative = inhibition) at 1uM” value is listed as 12.3%.

For the compound `CCc1ccccc1NC(=O)N[C@@H](C)C(=O)OC`, the “hERG current change (%, negative = inhibition) at 1uM” value amounted to 4.52%.

In the case of `COc1ccc(N2C3=C(CC4=C2CC(C)(C)CC4=O)C(=O)CC(C)(C)C3)cc1`, the “hERG current change (%, negative = inhibition) at 1uM” value is 10.9%.

On to `CCOC(=O)Nc1sc(C)c(C)c1C(N)=O`, for which the “hERG current change (%, negative = inhibition) at 1uM” value worked out at 13.4%.

`O=C(Nc1ccc([N+](=O)[O-])cn1)c1ccc2c(c1)OCO2`: the “hERG current change (%, negative = inhibition) at 1uM” value turned out to be 24.5%.

Take `COC(=O)CN(c1ccc(C)c(Cl)c1)S(C)(=O)=O`: the “hERG current change (%, negative = inhibition) at 1uM” value is recorded as 11.7%.

In the case of `CC(C)Sc1nnc(NC(=O)CCc2ccccc2)s1`, the “hERG current change (%, negative = inhibition) at 1uM” value is recorded as 2.16%.

As for `COc1cc(/C=C/c2cc(C(=O)O)c3ccccc3n2)cc(OC)c1O`, the “hERG current change (%, negative = inhibition) at 1uM” value was found to be 11.6%.

Turning to `COc1ccc(C(=O)NCC(=O)N/N=C/c2cn[nH]c2-c2ccccc2)cc1`, the “hERG current change (%, negative = inhibition) at 1uM” value is on record as 6.32%.

In the case of `O=C(O)CCc1ccc(-c2ccccc2)n1NC(=O)c1cccs1`, the “hERG current change (%, negative = inhibition) at 1uM” value was determined as 23.7%.

Turning to `O=C(CSc1nnc(-c2ccc3c(c2)OCO3)n1-c1ccccc1)c1ccc(Cl)cc1`, the “hERG current change (%, negative = inhibition) at 1uM” value came out at 12.4%.

Regarding `COc1cccc(NC(=O)C23CCC(C)(C(=O)O2)C3(C)C)c1` (centres unmarked), the “hERG current change (%, negative = inhibition) at 1uM” value was determined as 4.01%.

Turning to `COc1ccc(CCNC(=O)/C=C/c2cc(OC)c(OC)c(OC)c2)cc1OC`, the “hERG current change (%, negative = inhibition) at 1uM” value amounted to 4.08%.

As to `COc1cc(CNC(=O)C2CC2)ccc1OCc1ccccc1`, the “hERG current change (%, negative = inhibition) at 1uM” value came to 3.28%.

For the compound `COc1cccc(/C=C2/NC(=O)NC2=O)c1OCC(=O)Nc1ccccc1`, the “hERG current change (%, negative = inhibition) at 1uM” value is 7.2%.

Regarding `CCCCN(CC)c1nc(-c2ccncc2)nc2ccccc12`, the “hERG current change (%, negative = inhibition) at 1uM” value is on record as 7.37%.

Turning to `Cc1ccc(C2=[N+]([O-])C(C)N(O)C2(C)C)o1` (centres unmarked), the “hERG current change (%, negative = inhibition) at 1uM” value was 1.98%.

In the case of `CN1C(=O)C(=Cc2cc([N+](=O)[O-])ccc2N2CCCCC2)C(=O)N(C)C1=O`, the “hERG current change (%, negative = inhibition) at 1uM” value is recorded as 10.8%.

With `O=C(COC(=O)CCc1nc2ccccc2c(=O)[nH]1)Nc1ccccc1OC(F)F`, the “hERG current change (%, negative = inhibition) at 1uM” value is 24.2%.

Consider `CCOc1ccc(S(=O)(=O)NCCC(=O)NCCc2ccc(OCC)c(OCC)c2)cc1`, for which the “hERG current change (%, negative = inhibition) at 1uM” value was found to be 18.2%.

For the compound `CC(c1ccccc1)C1CC(=O)N(Cc2ccco2)C1=O` (centres unmarked), the “hERG current change (%, negative = inhibition) at 1uM” value is 21.3%.

As to `COc1cc(C(=O)Nc2nc(OC)c(-c3ccccc3)c(OC)n2)cc(OC)c1OC`, the “hERG current change (%, negative = inhibition) at 1uM” value was 6.73%.

`CC1=C(C(=O)N(C)C)C(c2cccs2)NC(=O)N1` (centres unmarked): the “hERG current change (%, negative = inhibition) at 1uM” value is recorded as 14.6%.
